Measurements as given in US20220402862A1 (Intellia Therapeutics, Inc., priority 2019, published 2022).
At least one read-out could not be matched to a standard name with certainty.

Test system: mouse TTR gene
Test: In vivo editing in mouse liver, sgRNA targeting TTR (G282 or G502), % indel by NGS
Set-up: species or system CD-1 female mice
Conditions: guide G282 (mouse TTR gene), LNP 50/9/38/3 amine lipid/DSPC/cholesterol/PEG-2k-DMG, N/P about 6, NGS, experiments 1-10, 16-20
Experimental: CD-1 female mice ranging from 6-10 weeks of age were used in each study. Animals were weighed and grouped according to body weight for preparing dosing solutions based on group average weight. LNPs were dosed via the lateral tail vein in a volume of 0.2 mL per animal (approximately 10 mL per kilogram body weight). The animals were periodically observed for adverse effects for at least 24 hours post dose. For studies measuring in vivo editing in liver, CD-1 female mice were dosed at 0.1 mg/kg unless otherwise noted. Animals were euthanized at 6 or 7 days by ex sanguination via cardiac puncture under isoflurane anesthesia. Liver tissue was collected from each animal for DNA extraction and analysis. Blood was collected into serum separator tubes or into tubes containing buffered sodium citrate for plasma as described herein. Cohorts of mice were measured for editing by Next-Generation Sequencing (NGS).
In brief, to quantitatively determine the efficiency of editing at the target location in the genome, genomic DNA was isolated and deep sequencing was utilized to identify the presence of insertions and deletions introduced by gene editing.
PCR primers were designed around the target site (e.g., within B2M), and the genomic area of interest was amplified. Additional PCR was performed according to the manufacturer's protocols (Illumina) to add the necessary chemistry for sequencing. The amplicons were sequenced on an Illumina MiSeq instrument. The reads were aligned to the mouse or rat reference genome (e.g., GRCm38) after eliminating those having low quality scores. The resulting files containing the reads were mapped to the reference genome (BAM files), where reads that overlapped the target region of interest were selected and the number of wild type reads versus the number of reads which contain an insertion, substitution, or deletion was calculated.
The editing percentage (e.g., the “indel efficiency” or “percent indels”) was defined as the total number of sequence reads with insertions or deletions over the total number of sequence reads, including wild type.
We assessed in vivo editing efficiency for materials delivered with formulations including various amine lipid compounds. Editing was measured using either G282 (SEQ ID No: 1) which targets the mouse TTR gene or G650 (SEQ ID No. 2) which targets the mouse B2M gene. Lipids described above were assessed for efficacy through in vivo editing experiments. LNPs were formulated at a 1:1 or 1:1.3 w/w ratio of sgRNA to Cas9 mRNA, and at an N/P ratio of about 6. Molar concentrations of lipids in the lipid component of the LNPs are used at mol % amine lipid/DSPC/cholesterol/PEG-2k-DMG of 50/9/38/3. The final LNPs were characterized to determine the encapsulation efficiency, polydispersity index, and average particle size according to the analytical methods provided above. Analysis of average particle size, polydispersity (PDI), total RNA content and encapsulation efficiency of RNA are shown in Table 2.
To assess whether the editing was dose responsive, experiments were performed in vivo at various LNP dose levels. Cas9 mRNA of Example 120 was formulated as LNPs with an sgRNA targeting TTR (G282, SEQ ID NO: 1; or G502, SEQ ID NO: 4).
We assessed in vivo delivery by measuring editing efficiency for materials delivered with formulations that included various amine lipid compounds. Cas9 mRNA (SEQ ID NO: 6) was formulated as LNPs with an sgRNA targetting the TTR mouse gene (SEQ ID NO: 4). LNPs were formulated at a 1:2 w/w ratio of sgRNA to Cas9 mRNA, and at an N/P ratio of about 6. Molar concentrations of lipids in the lipid component of the LNPs are used at mol % amine lipid/DSPC/cholesterol/PEG-2k-DMG of 50/9/38/3. The final LNPs compositions were characterized and analyzed as described in Example 120. Analysis of average particle size, polydispersity (PDI), total RNA content and encapsulation efficiency of RNA are shown in Table 6.

Structure (SMILES) | Editing Mean % Indel
CCCCC/C=C\C/C=C\CCCCCCCC(=O)OCC(COC(=O)CCCN(C)C)COC(=O)CCC(OCCCCCCCC)OCCCCCCCC (centres unmarked) [Compound 26, 3-((4,4-bis(octyloxy)butanoyl)oxy)-2-(((4-(dimethylamino)butanoyl)oxy)methyl)propyl (9Z,12Z)-octadeca-9,12-dienoate] | 8.2%
CCCCC/C=C\C/C=C\CCCCCCCC(=O)OCC(COC(=O)CCC(OCCCCCCCC)OCCCCCCCC)COC(=O)CCN(CC)CC (centres unmarked) [Compound 27, 3-((4,4-bis(octyloxy)butanoyl)oxy)-2-(((3-(diethylamino)propanoyl)oxy)methyl)propyl (9Z,12Z)-octadeca-9,12-dienoate] | 0.4%
CCCCC/C=C\C/C=C\CCCCCCCC(=O)OCC(COC(=O)CCCCN(CC)CC)COC(=O)CCC(OCCCCCCCC)OCCCCCCCC (centres unmarked) [Compound 28, 3-((4,4-bis(octyloxy)butanoyl)oxy)-2-(((5-(diethylamino)pentanoyl)oxy)methyl)propyl (9Z,12Z)-octadeca-9,12-dienoate] | 9.9%
CCCCC/C=C\C/C=C\CCCCCCCC(=O)OCC(COC(=O)CCC(OCCCCCCCC)OCCCCCCCC)COC(=O)C1(C)CCN(C)CC1 (centres unmarked) [Compound 32, 3-((4,4-bis(octyloxy)butanoyl)oxy)-2-((((9Z,12Z)-octadeca-9,12-dienoyl)oxy)methyl)propyl 1,4-dimethylpiperidine-4-carboxylate] | 28.8%
CCCCC/C=C\C/C=C\CCCCCCCC(=O)OCC(COC(=O)CCC(OCCCCCCCC)OCCCCCCCC)COC(=O)NC1CCCN(CC)C1 (centres unmarked) [Compound 36, 3-((4,4-bis(octyloxy)butanoyl)oxy)-2-((((1-ethylpiperidin-3-yl)carbamoyl)oxy)methyl)propyl (9Z,12Z)-octadeca-9,12-dienoate] | 0.2%
CCCCC/C=C\C/C=C\CCCCCCCC(=O)OCC(COC(=O)CCC(OCCCCCCCC)OCCCCCCCC)COC(=O)NC1CCN(CC)CC1 (centres unmarked) [Compound 37, 3-((4,4-bis(octyloxy)butanoyl)oxy)-2-((((1-ethylpiperidin-4-yl)carbamoyl)oxy)methyl)propyl (9Z,12Z)-octadeca-9,12-dienoate] | 1.6%
CCCCC/C=C\C/C=C\CCCCCCCC(=O)OCC(COC(=O)CCC(OCCCCCCCC)OCCCCCCCC)COC(=O)NCC1CCCCN1CC (centres unmarked) [Compound 38, 3-((4,4-bis(octyloxy)butanoyl)oxy)-2-(((((1-ethylpiperidin-2-yl)methyl)carbamoyl)oxy)methyl)propyl (9Z,12Z)-octadeca-9,12-dienoate] | 0.2%
CCCCC/C=C\C/C=C\CCCCCCCC(=O)OCC(COC(=O)CCC(OCCCCCCCC)OCCCCCCCC)COC(=O)NCC1CCCN1C (centres unmarked) [Compound 39, 3-((4,4-bis(octyloxy)butanoyl)oxy)-2-(((((1-methylpyrrolidin-2-yl)methyl)carbamoyl)oxy)methyl)propyl (9Z,12Z)-octadeca-9,12-dienoate] | 2.5%
CCCCC/C=C\C/C=C\CCCCCCCC(=O)OCC(COC(=O)CCC(OCCCCCCCC)OCCCCCCCC)COC(=O)NCC1CCCN1CC (centres unmarked) [Compound 40, 3-((4,4-bis(octyloxy)butanoyl)oxy)-2-(((((1-ethylpyrrolidin-2-yl)methyl)carbamoyl)oxy)methyl)propyl (9Z,12Z)-octadeca-9,12-dienoate] | 42.1%
CCCCC/C=C\C/C=C\CCCCCCCC(=O)OCC(COC(=O)CCC(OCCCCCCCC)OCCCCCCCC)COC(=O)NC1CCN(CC)C1 (centres unmarked) [Compound 41, 3-((4,4-bis(octyloxy)butanoyl)oxy)-2-((((1-ethylpyrrolidin-3-yl)carbamoyl)oxy)methyl)propyl (9Z,12Z)-octadeca-9,12-dienoate] | 9.0%
CCCCC/C=C\C/C=C\CCCCCCCC(=O)OCC(COC(=O)CCC(OCCCCCCCC)OCCCCCCCC)COC(=O)NC1CCCN(C)C1 (centres unmarked) [Compound 42, 3-((4,4-bis(octyloxy)butanoyl)oxy)-2-((((1-methylpiperidin-3-yl)carbamoyl)oxy)methyl)propyl (9Z,12Z)-octadeca-9,12-dienoate] | 5.2%
CCCCC/C=C\C/C=C\CCCCCCCC(=O)OCC(COC(=O)CCC(OCCCCCCCC)OCCCCCCCC)COC(=O)NC(C)CN(CC)CC (centres unmarked) [Compound 44, 3-((4,4-bis(octyloxy)butanoyl)oxy)-2-((((1-(diethylamino)propan-2-yl)carbamoyl)oxy)methyl)propyl (9Z,12Z)-octadeca-9,12-dienoate] | 3.8%
CCCCC/C=C\C/C=C\CCCCCCCC(=O)OCC(COC(=O)CCC(OCCCCCCCC)OCCCCCCCC)COC(=O)NC(C)CN(C)C (centres unmarked) [Compound 45, 3-((4,4-bis(octyloxy)butanoyl)oxy)-2-((((1-(dimethylamino)propan-2-yl)carbamoyl)oxy)methyl)propyl (9Z,12Z)-octadeca-9,12-dienoate] | 4.0%
CCCCC/C=C\C/C=C\CCCCCCCC(=O)OCC(COC(=O)CCC(OCCCCCCCC)OCCCCCCCC)COC(=O)N1CCN(C)CC1 (centres unmarked) [Compound 47, 3-((4,4-bis(octyloxy)butanoyl)oxy)-2-((((9Z,12Z)-octadeca-9,12-dienoyl)oxy)methyl)propyl 4-methylpiperazine-1-carboxylate] | 0.1%
CCCCC/C=C\C/C=C\CCCCCCCC(=O)OCC(COC(=O)CCC(OCCCCCCCC)OCCCCCCCC)COC(=O)N1CCN(CC)CC1 (centres unmarked) [Compound 48, 3-((4,4-bis(octyloxy)butanoyl)oxy)-2-((((9Z,12Z)-octadeca-9,12-dienoyl)oxy)methyl)propyl 4-ethylpiperazine-1-carboxylate] | 0.1%
CCCCC/C=C\C/C=C\CCCCCCCC(=O)OCC(COC(=O)CCC(OCCCCCCCC)OCCCCCCCC)COC(=O)OCC1CCN(CC)C1 (centres unmarked) [Compound 51, 3-((4,4-bis(octyloxy)butanoyl)oxy)-2-(((((1-ethylpyrrolidin-3-yl)methoxy)carbonyl)oxy)methyl)propyl (9Z,12Z)-octadeca-9,12-dienoate] | 13.5%
CCCCC/C=C\C/C=C\CCCCCCCC(=O)OCC(COC(=O)CCC(OCCCCCCCC)OCCCCCCCC)COC(=O)OCC1(C)CCCN(CC)C1 (centres unmarked) [Compound 52, 3-((4,4-bis(octyloxy)butanoyl)oxy)-2-(((((1-ethyl-3-methylpiperidin-3-yl)methoxy)carbonyl)oxy)methyl)propyl (9Z,12Z)-octadeca-9,12-dienoate] | 6.4%
CCCCC/C=C\C/C=C\CCCCCCCC(=O)OCC(COC(=O)CCC(OCCCCCCCC)OCCCCCCCC)COC(=O)OCC1CCCN(C)C1 (centres unmarked) [Compound 53, 3-((4,4-bis(octyloxy)butanoyl)oxy)-2-(((((1-methylpiperidin-3-yl)methoxy)carbonyl)oxy)methyl)propyl (9Z,12Z)-octadeca-9,12-dienoate] | 28.2%
CCCCCC/C=C\COC(=O)CCCC(=O)OCC(COC(=O)CCC(OCCCCCCCC)OCCCCCCCC)COC(=O)OCCCN(CC)CC (centres unmarked) [Compound 56, (Z)-3-((4,4-bis(octyloxy)butanoyl)oxy)-2-((((3-(diethylamino)propoxy)carbonyl)oxy)methyl)propyl non-2-en-1-yl glutarate] | 15.5%
CCCCCCCCCCOC(=O)CCCCCCCC(=O)OCC(COC(=O)CCC(OCCCCCCCC)OCCCCCCCC)COC(=O)OCC1CCCN(C)C1 (centres unmarked) [Compound 71, 1-(3-((4,4-bis(octyloxy)butanoyl)oxy)-2-(((((1-methylpiperidin-3-yl)methoxy)carbonyl)oxy)methyl)propyl) 9-decyl nonanedioate] | 52.4%
